Experimental data reported in patent publication US10214584B2, “Therapeutic pharmaceutical composition employing anti-SLC6A6 antibody” (ORDER-MADE MEDICAL RESEARCH INC., priority 2014, dated 2019).

System: cells
Assay: Internalization by flow cytometry with surface quench by anti-Alexa Fluor 488 antibody
Type: cell-based
Settings: FIG. 13B
Experimental: These antibodies were analyzed for their internalization by flow cytometry using cells treated in two ways.
For the first way, the following operations were performed. Cells detached from culture dishes were suspended in staining buffer [PBS(−)-3% fetal bovine serum]. To this cell suspension, protease inhibitors were added (final concentration: 10 μg/mL leupeptin, 5 μM pepstatin) to prevent antibody molecules from being degraded in lysosomes after being taken up into the cells. Each Alexa Fluor 488-labeled antibody was added to the cell suspension at a final concentration of 30 μg/mL and then rotated with a rotator at room temperature for 1 hour. After being further rotated with a rotator at 37° C. for 3 hours, the cells were washed three times with the staining buffer and then measured for fluorescence signals by flow cytometry (FIG. 13B; isotype control, chimeric antibody).
The cells obtained in the first way were reacted at 4° C. for 1 hour with an antibody binding to Alexa Fluor 488 and thereby quenching its fluorescence (anti-Alexa Fluor 488, rabbit IgG antibody fraction: anti-Alexa Fluor 488 antibody) at a final concentration of 50 μg/mL to observe changes in fluorescence intensity (FIG. 13B; surface quench). […]

B1: 430 human-mouse chimeric antibody: chimeric antibody, H chain SEQ ID NO: 44, L chain SEQ ID NO: 46 (antibody)
heavy: EIQLQQSGPEVVKPGTSVRVSCTASGYAFTQYNLYWVKLRHGKCPKWIGSIDPYIGGANYNQQFKDKVTLTVDKSSSTAYLHLNSLTSEDSAIYYCARWWDGYFDVWGAGTTVTVSS[human IgG1 constant region not spelt out]
light: QIVLTQSPAIMSASLGERVTMTCTASSSVSFRYLHWYQVKPGSSPKLWIYSTSNLASGVPSRISGSGSGTSYFLTISNMEAEDAATYYCHQYHRSPLTFGAGTKLELTRTVAAPSVFIFPPSDEQLKSGTASVVCLLNNFYPREAKVQWKVDNALQSGNSQESVTEQDSKDSTYSLSSTLTLSKADYEKHKVYACEVTHQGLSSPVTKSFNRGEC
Question: B1 was tested. Which “uptake into the cells compared with the 4B9b human-mouse chimeric antibody” value did it give?
Answer: Its value is “more efficiently taken up into the cells than the 4B9b human-mouse chimeric antibody”.

Question: What about the “fluorescence upon addition of the anti-Alexa Fluor 488 antibody (surface quench)” value (labeled antibody 30 μg/mL, 1 hour room temperature and 3 hours 37° C.) of the same molecule?
Answer: Its value is “did not disappear”.
